Measurements reported in publication PMC12136788.
Some of the results follow.

T1: UNK ZnF1-3 (human, UniProt Q9C0B0 31-174)
T1 sequence: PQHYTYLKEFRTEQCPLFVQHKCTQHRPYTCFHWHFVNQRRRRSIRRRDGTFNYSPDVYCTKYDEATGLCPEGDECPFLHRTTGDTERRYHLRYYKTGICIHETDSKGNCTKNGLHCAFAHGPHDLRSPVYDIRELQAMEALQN

B1: 171546587_171546707_2472_CDS_ENSG00000117523_ENST00000495585|human|control|control (ssRNA)
RNA: GGGAGUUCUACAGUCCGACGAUCUUAACUGUGAAAAAUGACUUGCAGAAGGCAGGCUGCUUGUCUGUAACUGCUGAGGUUUCACUUUACAAAUAUUUGGAGGGUCCGAUGUGGUUGUAGAUUUUGUGCUCAAAGAAGAGGUAGCAACAGAGGAUUGAGCAUCA
B2: chr4:88366126:88366127:-_ENSMUSG00000070923_ENSMUST00000094993|mus_mus|FALSE|FALSE (ssRNA)
RNA: GGGAGUUCUACAGUCCGACGAUCUGCUGAAAGAGGUGAUUCUCUAGAAGGUGACCCAGGGUUUUCUUCAGGUGGAAAAACUGUGAGAGUGCAAGCCCGAAUGCCACCCAGCGACUCAGGAAGAUCAAAAACUUUAUGCCACUCCAACAGAGGAUUGAGCAUCA
B3: chr4:81121375:81121376:+_ENSG00000152784_ENST00000415738|hu_mus|FALSE|FALSE (ssRNA)
RNA: GGGAGUUCUACAGUCCGACGAUCUACCCGGAAGAUGUAAGGUACUGUUCUCUUGUCCGUGGACUUGAGGGCUACGAAGGCUAUGCUGUCAUACAGGGAAGUAUGGCUCAGUACACAGGGACCGAAUAUGGCGUUCUCUGGGAUCAACAGAGGAUUGAGCAUCA
B4: 88157618_88157738_1641_3pUTR_ENSMUSG00000069769_ENSMUST00000107909|mouse|control|control (ssRNA)
RNA: GGGAGUUCUACAGUCCGACGAUCUGUGUGCUAAAGUCCCAGAUGAAAAGUCUUACAGUCUCAGAACUGGUACCAAAAAUGGAGAGUAACAUCACCAUCUCAGCAUCCUUUAAAAGCGAGAACAGAAUCAAAACAAAACAAAAACAACAGAGGAUUGAGCAUCA
B5: chr8:61654917:61654918:+_ENSG00000171316_ENST00000423902|hu_mus|motif|central (ssRNA)
RNA: GGGAGUUCUACAGUCCGACGAUCAUUCAUUGGAGUACUGUUUGUAAGGCCUAAAUUUUGAUUCAUCCCUGUACUGUUAACGGAUCCCUGAUUUAGGUUACUGUAAGGAUAUCGAGAAUACUGCCCUGAGUUGUUUACAGUAGGCAACAGAGGAUUGAGCAUCA
B6: chr5:133537698:133537699:-_ENSG00000113575_ENST00000481195|hu_hu|FALSE|FALSE (ssRNA)
RNA: GGGAGUUCUACAGUCCGACGAUCGCUCUCAUGAUUCCCUCGAAGAAUGGUGAUGCGUUCACGGUAACGAACCUUAAGAGCUACAAGCAGUGUAACUGUUUCAACUGAAUAAUAUCCUCUGUCAACAUAAUCUCCCAUAAACAACAACAGAGGAUUGAGCAUCA
B7: chr3:179287964:179287965:+_ENSG00000136518_ENST00000429709|hu_hu|hu_hu_hu_mus_True|18_38 (ssRNA)
RNA: GGGAGUUCUACAGUCCGACGAUCCUUGAGUGGUGAGAUGGCCUCCAUGUUCUCCCUGGGCACGCGGAGGGCAUUGGUGUCUAUGUAGUAGGUGGGCCCGCCUUGUUUGCCUUUGUCGCCAUCUAUUUCCAUCAUUGUACUUCCCAACAGAGGAUUGAGCAUCA
B8: 130672799_130674977_855_CDS_ENSG00000017260_ENST00000359644|human|control|control (ssRNA)
RNA: GGGAGUUCUACAGUCCGACGAUCCAUGCUCUUCUGCAGAGGGGUUUUUGGUGCCUCUUCUGCUUGCAUCAUUUUAAAAACCUCCCCAAAUUCAGAAUUUUCUCCUGUUCCAAUGACAACACCCUUUGCUUUGCCACAUCUGACCAACAGAGGAUUGAGCAUCA
B9: chrX:140365796:140365797:-_ENSMUSG00000031285_ENSMUST00000033642|mus_mus|mus_mus_mus_hu_False|28_78 (ssRNA)
RNA: GGGAGUUCUACAGUCCGACGAUCCUUCUCAUUACUCAGUGCCUGCAAGGUUCUGGUUCUGUAGAAGCUACAGUGGGCGCUGUGAGUGGGGCUAGGCAACCCAUUCAUCCGUGACCCUCGCAUGUUCCUGGAUGUCUUAUCUCUCAACAGAGGAUUGAGCAUCA
B10: chr19:60011576:60011577:-_ENSMUSG00000040022_ENSMUST00000171986|mus_mus|FALSE|FALSE (ssRNA)
RNA: GGGAGUUCUACAGUCCGACGAUCUUUUGCUGUAAACGGGUUAGUUGACUCAUAUUCAAAAUAGUCCUGCCGGUUUUCACUAAAAGCACUAGGUGAUUUCAAGUCACAUGGGCUAUCAGAUCCACCAUUGUUCAGCUUGUCAGGCAACAGAGGAUUGAGCAUCA
B11: chr2:163839828:163839829:+_ENSMUSG00000018326_ENSMUST00000018470|mus_mus|motif|central (ssRNA)
RNA: GGGAGUUCUACAGUCCGACGAUCGGAGUUGGACACCGUGGUUUGUUUAUUUUCUCCGGAUGCAACUUCAGAAAGAUACCGGAAGUAGUCUCCUUUCAUUUUUAAGUAGAACACUUUGCUUUCUGCCUGGGUGGCAUUGAGAAUCAACAGAGGAUUGAGCAUCA
B12: 54362245_54362365_1468_3pUTR_ENSG00000091157_ENST00000357574|human|control|control (ssRNA)
RNA: GGGAGUUCUACAGUCCGACGAUCAACUAUGCUUCCAUCUUCACGACCACAAACAAGUCGUCCAUGUGCUGGUAUGUACACACUUGCAGUUACUUUAAGAGGUUCAUUACUAUUGGGAAUCACACUCAGCUGAUCUAUAAUUCCCAACAGAGGAUUGAGCAUCA
B13: chr2:217001844:217001845:+_ENSG00000079246_ENST00000392132|hu_hu|hu_hu_hu_mus_False|98_98 (ssRNA)
RNA: GGGAGUUCUACAGUCCGACGAUCACCAACUUGAGGAUUAGCUCUUUUGUCAUAAGCAUAUCGGACGAUGGCGACCAUGUUUAACUCAUCCAAAGCAUGAACGAGAGAGGAAAGGGCAACAGCUGCCGCCUCAUCAUCCUUUGCCAACAGAGGAUUGAGCAUCA
B14: chr1:225611761:225611762:-_ENSG00000143815_ENST00000272163|hu_mus|hu_hu_hu_mus_True|1_1 (ssRNA)
RNA: GGGAGUUCUACAGUCCGACGAUCCCAGGCCAUCGGCCUCUGACCACUUCACCCUCAACAAACUUCCUACUUGGCAUUUUCUAAAAUUAGUCUGGCCGCGCUCCGGCGGGAACUCCAGCCACUCCAGGACAGUCACCCGCACAGCAACAGAGGAUUGAGCAUCA
B15: chr17:56739783:56739784:+_ENSMUSG00000071054_ENSMUST00000095224|mus_hu|FALSE|FALSE (ssRNA)
RNA: GGGAGUUCUACAGUCCGACGAUCAUAUUUGCUGAAAAGAUUCUUCAAAUCUGUAGCUCUGGUUGUAGAAGAGAGUCCACUAACCCAGAAAUUUCUACCACAACUGCUGCGACCCUUUUCCUCUUUGGAAAGCCUUUUUGUAUCCAACAGAGGAUUGAGCAUCA
B16: 3496528_3496648_1171_3pUTR_ENSMUSG00000024908_ENSMUST00000113997|mouse|control|control (ssRNA)
RNA: GGGAGUUCUACAGUCCGACGAUCGGCUCGAGUAGGAGUUCAUGGAAAGAUCCAAGUCUUCCUCGGAUGGCUUCAAGAACACUCUUGUUAACUGAACAAGCUGAAUGACUCAUGCCCGGGGGGCAGAUUUCUAUAUGGCCUUCACAACAGAGGAUUGAGCAUCA
B17: chr5:171327072:171327073:-_ENSG00000072803_ENST00000265094|hu_mus|motif|central (ssRNA)
RNA: GGGAGUUCUACAGUCCGACGAUCCACCAGCUCUGCUGCACACAGAGACCUGGCAUCCAGGUAGGAGAGAAUGUUUUCUGCGGUGUGAUCUAAGCCUUGCUCUGGUAAAGCAGUGAUAAAGUCCCGCUGCAACAUGGGCUUCAGCAACAGAGGAUUGAGCAUCA
B18: 91048680_91051365_300_3pUTR_ENSMUSG00000030091_ENSMUST00000032179|mouse|control|control (ssRNA)
RNA: GGGAGUUCUACAGUCCGACGAUCCUGCCCUGUAGUGAUGUCUUCUGCAAAGAUGAUGCUGGUCAGGCGGGCUGGCUGGGUCAAGCGGGCCUGCACCACUGCCUUCUGGGAGCACUGCUGUUCACUGGAGCCCAACGGCUCUAUCAACAGAGGAUUGAGCAUCA
B19: chr5:144009550:144009551:+_ENSMUSG00000029587_ENSMUST00000032591|mus_mus|FALSE|FALSE (ssRNA)
RNA: GGGAGUUCUACAGUCCGACGAUCCAUCCAAAUUUACAGACAAUAAAUCUCUCUAUUGACACAUCAAAAUAAAUGAUUUCCUAAAUUCCACUUCUGAAUUGCAUAACUCCUACAGAGUGUAAUGGGGCACCAGGCUGUCCUGUUCAACAGAGGAUUGAGCAUCA
B20: chr17:64801638:64801639:+_ENSG00000154229_ENST00000413366|hu_mus|hu_hu_hu_mus_False|58_68 (ssRNA)
RNA: GGGAGUUCUACAGUCCGACGAUCUAUAUAUAUAUAUACAUAUGUACACAUAUAUAGUAAAACCCUAAUCUAUCACGUAAACUAGCCAUUCAUUUUUAAAAUUACAUCUACAUUAAAAAAUUAAUAUAUCUGAUAGAGUGCCAGCAACAGAGGAUUGAGCAUCA
B21: chr11:75505782:75505783:+_ENSMUSG00000017776_ENSMUST00000017920|mus_mus|FALSE|FALSE (ssRNA)
RNA: GGGAGUUCUACAGUCCGACGAUCUGCCUCCUCCUGCCUGAGAAUCACUCCACUACCCUGCCUUGAUCUGGCCACUGGUUCUAUCAAUGUUGUAGUGUCCAAAUAGUGUAUUUUGUAGAAUUCCAGUAAAGCAGGCAAUGAAUCCAACAGAGGAUUGAGCAUCA
B22: 8158408_8158897_535_CDS_ENSG00000178921_ENST00000314666|human|control|control (ssRNA)
RNA: GGGAGUUCUACAGUCCGACGAUCGAAGUGCUGCUCUGUCAUCCGGUCGUGCAGGGUAGCCAGAGCAAUGGCUUCCACCUCAGCUGACGGGGGGUGGGCAAACGAGAGCCGGUAGCGCCGGGUGGUCUCCACACGAUCCACAGGCAACAGAGGAUUGAGCAUCA

Each binder was assayed against T1, UNK ZnF1-3 (assay: nsRBNS (natural sequence RNA bind-n-seq); RBNS binding buffer (assumed for nsRBNS): 25 mM Tris pH 7.5, 150 mM KCl, 3 mM MgCl2, 0.01% Triton X-100, 500 ug/ml BSA, 20 U/ml SUPERase-In, 4 C; UNK is unkempt and MSI1 is Musashi-1; names of the RNAs are library labels; protein concentration not given here; high values mean tight binding).
For B1, the binding signal was 1.11 enrichment R.
B2 was tested, and the binding signal was 1.63 enrichment R.
Binder B3 has a binding signal of 0.999 enrichment R.
Binder B4 has a binding signal of 2.36 enrichment R.
Work on B5 yielded a binding signal of 0.623 enrichment R.
B6 was tested, and the binding signal was 1.09 enrichment R.
With B7 the binding signal was 0.585 enrichment R.
B8 gave a binding signal of 0.738 enrichment R.
B9 gave a binding signal of 0.636 enrichment R.
B10 was tested, and the binding signal was 0.689 enrichment R.
B11 gave a binding signal of 0.645 enrichment R.
For B12, the binding signal was 0.66 enrichment R.
For B13, the binding signal was 2.52 enrichment R.
B14 showed a binding signal of 1.23 enrichment R.
With B15 the binding signal was 0.76 enrichment R.
B16 showed a binding signal of 1.1 enrichment R.
For B17, the binding signal was 0.913 enrichment R.
For B18, the binding signal was 0.87 enrichment R.
Work on B19 yielded a binding signal of 1.22 enrichment R.
Binder B20 has a binding signal of 1.22 enrichment R.
For B21, the binding signal was 1.04 enrichment R.
B22 was tested, and the binding signal was 0.568 enrichment R.
